Results as given in ChEMBL document CHEMBL4888484, “Replenishing the malaria drug discovery pipeline: Screening and hit evaluation of the MMV Hit Generation Library 1 (HGL1) against asexual blood stage Plasmodium falciparum ,using a nano luciferase reporter read-out” (2022).
The whole screen tested about 150,000 compounds, of which about 540 (0.36%) showed an effect of 50% or more. The list shows a part of the results.

The compounds below were run on Plasmodium falciparum (assay: Primary screen in NF54 nanoGlo assay, in single point, at 2uM, 72h; a lower Z score goes with more inhibition). Details: timepoint 72 hour.
Type: functional, Erythrocyte

Compound | % Inhibition [%] | Z score
CNC(=O)N1CCC[C@H]1c1nc(C2CN(C(=O)c3ccc(OC)cc3OC)C2)no1 | 3 | -0.37
COc1ccc(Cc2c(C)nc(C)nc2N2CCN(S(=O)(=O)c3ccc(OC)cc3)CC2)cc1 | -17 | 1.57
CNCC#CCOc1ccc(C)c(C)c1 | -5 | 0.56
Cn1c(=O)n(Cc2cccc3cccnc23)c2ccccc21 | -7 | 0.94
CCC(C)(C)C(=O)NC(C)C(O)c1ccc(F)c(F)c1 (stereo not drawn) | -13 | 1.63
C[C@H]1CN(C(=O)NCc2ccccc2Br)CCCO1 | -6 | 0.92
CC1CN(C(=O)CCc2cccc(N(C)C)c2)CC[S+]([O-])C1 (stereo not drawn) | -5 | 0.55
Cn1c(=O)[nH]c(=O)c2cc(S(=O)(=O)N[C@]3(C)CC=CCC3)cnc21 | -2 | 0.33
O=C(Nc1cc(Br)ccc1F)C(=O)NC1CCC1 | -3 | 0.51
Cc1cccc(NC(=O)Cn2ccn3nc4c(c3c2=O)CCCCC4)c1C | -12 | 1.56
Fc1cc(Cl)cc(-c2nccn2CC2CCOCC2)c1 | -15 | 1.86
CN(c1ccc(O)cc1)S(=O)(=O)c1cnn(CC2CC2)c1 | -12 | 1.94
Cc1c(C(=O)NCc2ccc(F)cc2)c(C)n2cnn(CC(=O)Nc3ccccc3)c(=O)c12 | 6 | -1
CC1(CNC(=O)N2CCC[C@]3(CCCN(Cc4ccccc4)C3)C2)COC1 | 11 | -2.02
Cn1ncc2c(N3CCNC(=O)C3)nc(CCc3ccccc3)nc21 | -15 | 1.48
COc1cc(Br)ccc1[C@H](C)NCc1cncnc1 | -7 | 0.92
Cc1nnc(CCNC(=O)[C@]2(C)CCCO2)s1 | 0 | 0.03
O=C(Nc1ccc2c(c1)OCCO2)[C@@H]1CCCCN1S(=O)(=O)c1ccc(Cl)s1 | -11 | 2.21
Cc1nc2cc(OCc3ccccc3)ccc2n1C | 35 | -1.06
CN(Cc1cscn1)C(=O)[C@H]1CC12CCN(Cc1cc3ccccc3o1)CC2 | -11 | 1.47
COCc1nc(C)cc(N[C@H](C(=O)N2CCCC2)C(C)C)n1 | -14 | 1.4

Compound | % Inhibition [%] | Z score
CC(=O)c1c(C)[nH]c(C(=O)N2CCCc3cc(C)ccc32)c1C | -10 | 0.87
Cc1ccc(CNC(=O)NC2CN(Cc3ccccc3)CC2C)cn1 (stereo not drawn) | -6 | 0.67
O=C(Nc1ccc2c(c1)OCCCO2)c1ccco1 | 29 | -3.9
CC[C@H](NC(=O)N1CCCCCC1)c1cccc(C)n1 | 3 | -0.55
Cc1ccc2c(n1)OCCN2CC(=O)N[C@@H](C)c1ccc(C)c(C)c1 | -13 | 1.51
O=C(c1ncoc1C(F)(F)F)N1CCC12COC2 | -11 | 1.75
NC(=O)c1ccnc(-c2ccccc2OCc2ccccc2)c1 | -8 | 1.01
CCC1c2cccn2CCN1C(=O)CC1(c2ccccc2F)CC(=O)N(C2CCCCC2)C1=O (stereo not drawn) | -6 | 1.09
CC1CN(S(=O)(=O)c2cccc(C(=O)c3cccc(S(=O)(=O)N4CC(C)OC(C)C4)c3)c2)CC(C)O1 (stereo not drawn) | -32 | 3.77
Cc1cc(N2C[C@H](O)[C@@H](N3CCN(C)CC3)C2)n2nccc2n1 | 1 | -0.24
Cc1ccc(C)c(NC(=O)N2CC[C@H](N(CCN3CCCC3)S(=O)(=O)N(C)C)C2)c1 | 26 | -2.99
O=C(c1cnn[nH]1)N1CCOc2ccc(CO)cc2C1 | -5 | 0.69
Cc1nnc(NCc2ccc(N3CCCC3=O)cc2)c(C#N)c1C | -17 | 1.54
CC(C)(CNC(=O)Nc1ccn2ccnc2c1)C1CCOCC1 | -19 | 2.61
CC(C)C(=O)N1CCc2nc[nH]c2[C@@H]1C1CCN(C(=O)c2cccc(C(=O)O)c2)CC1 | -6 | 0.86
COc1ccc(C(=O)N[C@@H](N2CCCCC2)C(Cl)(Cl)Cl)cc1 | -9 | 1.25
COc1ccc(OC)c(-c2ccnc(-n3ncc(C(=O)NCCCN4CCCC4=O)c3C)n2)c1 | -10 | 1.26
O=C(c1cccc(-n2ccnn2)c1)N(CC(F)(F)F)C1CCC1 | 1 | -0.26
Cc1noc(C)c1CN(C)C(=O)COCC(F)(F)C(F)F | -20 | 1.73
CC(C)c1cnc(NC(=O)N2CCCn3c(cc4ccccc43)C2)s1 | 15 | -3.25
CC1(C)CC2=NC(Nc3nc4ccccc4s3)=N[C@@H](c3ccccc3)C2=C(O)C1 | -2 | 0.31

Compound | % Inhibition [%] | Z score
OC[C@H]1CCCCN1Cc1cc(-c2ccncc2)no1 | 10 | -1.34
CCC(NC1CCC(=O)N(C)C1)c1cccc(Cl)c1F (stereo not drawn) | 6 | -0.86
COC(=O)c1cc(CN2CC[C@H](S(C)(=O)=O)C2)c(Cl)cc1O | 3 | -0.53
CC(C)N1CCC[C@H](c2nc(-c3ccncc3)no2)C1 | -9 | 1.67
O=C(NCCC1CS(=O)(=O)C1)c1nccc2cccnc12 | -6 | 1.16
Cc1cscc1NC(=O)NCc1ncc(C(C)(C)C)o1 | -1 | 0.13
CCC[C@H](NC(=O)c1cc(-c2cccnc2)nc2ccccc12)c1cccs1 | -4 | 0.77
CCOC(CN(Cc1cccc(O)c1)[C@H]1CC[C@H](O)CC1)OCC | -3 | 0.37
CN(C)CCN1C[C@@H](C(=O)NCc2cccc(-c3ccccc3)c2)CC1=O | 0 | 0.05
CC(C)N1CC[C@H](c2nnc3n2CCN(S(=O)(=O)c2ccccc2Cl)C3)C1 | 44 | -5.87
CC(=O)N[C@H](CC1CCC1)C(=O)NCc1n[nH]c(C(C)(C)C)n1 | -9 | 1.03
COc1ccccc1CC(=O)Nc1cnc(O)nc1O | -2 | 0.29
CCc1ccccc1NC(=O)COc1cc(C)nc(N2CCCC2)n1 | -4 | 0.78
CC(C)[C@H](NC(=O)c1c(F)cccc1F)C(=O)N1CCC1 | -12 | 2.17
C[C@]1(F)CCCN(C(=O)CCCC#N)C1 | 5 | -0.61
CCN(CC)c1nc(C(=O)NCC(C)C)nc2nc(C)cc(C)c12 | -11 | 1.8
CC(C)c1csc([C@H]2CCCN(Cc3ccc(C(=O)O)cc3F)C2)n1 | -12 | 2.02
Cc1n[nH]c(C)c1CCN(C)Cc1nc(CC2CC2)no1 | -10 | 1.48
Cc1nc(-c2ccccc2F)sc1CNC(=O)c1cc(-c2cccs2)nn1C | 0 | -0.08
CCNC(=O)c1nn(Cc2ccccc2)c2c1C[C@@H](N1CCC(C(N)=O)CC1)CC2 | -2 | 0.2
Brc1cnn(Cc2nc(-c3ccoc3)no2)c1 | -11 | 1.25

Compound | % Inhibition [%] | Z score
COc1ccc(N2CCN(c3nccc4ccc(C(=O)NCCCN5CCOCC5)cc34)CC2)cc1 | 7 | -0.81
C[C@@H]1CN(C(=O)CN(Cc2ccsc2)C2CCCC2)C[C@H](C)O1 | 1 | -0.25
CC1CC(C)CN(S(=O)(=O)c2ccc(Cl)c(C(=O)NCC(c3ccco3)N3CCCC3)c2)C1 (stereo not drawn) | -16 | 3.09
COc1cccc(CN2CCc3c(c(C(=O)N4CCNC(=O)C4)nn3Cc3ccccc3)C2)c1 | 5 | -0.86
NC(=O)[C@@H]1C[C@@H](F)CN1CC1=CCCCC1 | -17 | 2.17
NC(C(=O)NC1CCCCCC1c1ccccc1C(F)(F)F)C1CCCO1 (stereo not drawn) | -11 | 1.19
COc1ccc(-c2ccc(C(=O)N3CCCCC3)cn2)c(-n2cccn2)c1 | -13 | 1.7
COc1cccc(CN(C)CC2CCCC2)c1OC[C@@H](O)CN1CCOCC1 | -1 | 0.17
Cc1cc(C(=O)N[C@H]2CCN(Cc3cscn3)C[C@@H]2O)sc1C | -6 | 1.2
O=S(=O)(C[C@H]1CCOC1)NCCc1ccsc1 | -11 | 1.82
O=C(Nc1ccc(OCC2CCCCC2)cc1)N1CC[C@H](O)C1 | -6 | 0.87
Cc1c(N[C@@H](C)C(=O)Nc2ccc3ccccc3c2)c(=O)n(-c2ccccc2)n1C | -1 | 0.18
CCn1c(C)ccc(C(=O)NCCn2ccnn2)c1=O | -4 | 0.77
Cc1ccccc1Nc1nc(N)nc(CN2C(=O)N[C@](C)(c3ccccc3Cl)C2=O)n1 | 8 | -0.93
Cc1ncccc1C(=O)N1CC[C@H](c2ccc(F)cc2)[C@@H](O)C1 | -5 | 1.02
CS(=O)(=O)CC(=O)c1ccc(C(F)(F)F)nc1 | -4 | 0.58
CCN1CCN(C(=O)c2cnc(-c3ccccc3)nc2)[C@H]2CS(=O)(=O)C[C@H]21 | 10 | -1.61
CCc1nc(CNc2ccc(Br)cc2C(=O)NC)n[nH]1 | -17 | 2.39
O=C1COc2ccc(N3C(=O)c4ccccc4C3=O)cc2N1 | 29 | -3.68
CC(C)(C)c1nc(Cn2ccnc2[C@@H](O)c2ccco2)co1 | 2 | -0.44
Cc1nn(C)c(S(=O)(=O)N(C2CC2)C2COC2)c1C(F)F | -13 | 1.2
